The inconclusive results got no clear call from the source; some entries with a clear call stand among them for comparison. For part of these data: Where the call is inconclusive, the potency comes from a doubtful curve fit. Calls of active or inactive are those of the source. Unless noted, calls follow the shape of the dose curve; as a rule, active = well fitted curve in the direction sought with a large enough effect; inconclusive = small, poorly fitted or top-dose-only effect, or another doubt; inactive = no such curve, though single readings can be large; an effect the other way counts as inactive or inconclusive.
What was measured:
[1] = tested on: Zika virus NS2B-NS3 protease (linked construct); assay: Primary screen NINDS Rhodamine qHTS for Zika virus inhibitors (AID 1347160); also: potency is read from the fitted curve at half-maximal effect; nearly all actives have a fitted effect of over 55% in size
Outline: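 Kinetic fluorescence (Ex 480 nm, Em 540 nm) over 15 min with 1.5 microM Rhodamine110 peptide and 25 nM linked protease.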

[2] = HPAF-II Cancer Cell Toxicity qHTS against the NCATS CANVASS Library (AID 1347346); also: nearly all actives have a fitted effect of over 55% in size; also: potency is read from the fitted curve at half-maximal effect
Outline: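 Luminescence from CellTiter-Glo, added after 72 h compound exposure and a 15 min room-temperature incubation, served as the viability readout. HPAF-II cells (1000/well) received an 11-point concentration series.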

[3] = UWB1.289 Cancer Cell Toxicity qHTS against the NCATS CANVASS Library (AID 1347347); also: potency is read from the fitted curve at half-maximal effect; nearly all actives have a fitted effect of over 60% in size
Outline: (§1)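 Quantitative HTS format: an 11-concentration series was applied to 1000 cells/well following a 4-hour attachment. Cultures ran 72 hours before ATP luminescence detection by CellTiter-Glo.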

[4] = HEK-293 Cancer Cell Toxicity qHTS against the NCATS CANVASS Library (AID 1347355); also: nearly all actives have a fitted effect of over 65% in size
Outline: (§2)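 Luminescent ATP read-out (CellTiter-Glo, 15min at room temperature) measures survival after cells face an 11-point compound series for 72 hours at 37 degrees C/5% CO2.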

[5] = qHTS for inhibitors of ER calcium dysfunction: SERCaMP assay screened against the NCATS CANVASS Library (AID 1347393); settings: SH-SY5Y GLuc-SERCaMP (Gaussia luciferase released on ER calcium loss) secretion, thapsigargin, luminescence; series mostly up to 76.6 µM; also: nearly all actives have a fitted effect of over 40% in size; also: potency is read from the fitted curve at half-maximal effect
Outline: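 Thapsigargin-induced ER calcium depletion drives GLuc-SERCaMP secretion from SH-SY5Y cells; compounds given 16 h beforehand were scored by lowered coelenterazine luminescence after 4 h challenge.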

[6] = OV-KATE Cancer Cell Toxicity qHTS against the NCATS CANVASS Library (AID 1347345); also: potency is read from the fitted curve at half-maximal effect
Outline: as §1

[7] = OV-SAHO Cancer Cell Toxicity qHTS against the NCATS CANVASS Library (AID 1347348); settings: OV-SAHO viability, CellTiter-Glo luminescence, 72 h; series mostly up to 38.3 µM; also: potency is read from the fitted curve at half-maximal effect; nearly all actives have a fitted effect of over 55% in size
Outline: as §1

[8] = Panc-1005 Cancer Cell Toxicity qHTS against the NCATS CANVASS Library (AID 1347349); also: potency is read from the fitted curve at half-maximal effect; nearly all actives have a fitted effect of over 60% in size
Outline: as §1

[9] = U-118MG Cancer Cell Toxicity qHTS against the NCATS CANVASS Library (AID 1347351); also: potency is read from the fitted curve at half-maximal effect
Outline: as §1

[10] = COV-362 Cancer Cell Toxicity qHTS against the NCATS CANVASS Library (AID 1347352); also: potency is read from the fitted curve at half-maximal effect
Outline: as §2

[11] = UWB1.289-WTBRCA1 Cancer Cell Toxicity qHTS against the NCATS CANVASS Library (AID 1347354); also: potency is read from the fitted curve at half-maximal effect
Outline: as §2

[12] = KB-8-5-11 Cancer Cell Toxicity qHTS against the NCATS CANVASS Library (AID 1347364); also: potency is read from the fitted curve at half-maximal effect; nearly all actives have a fitted effect of over 75% in size
Outline: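 Plate 500 KB-8-5-11 cells per well in DMEM + 10% FBS, add compounds by pin transfer, incubate 72 hr at 37C. Add CellTiter-Glo, wait 10 minutes at room temperature, read luminescence.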

[13] = qHTS for ATAD5 Agonist screened against the NCATS CANVASS Library (AID 1347367);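 also: luciferase reporter driven by ATAD5 which rises upon DNA damage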
Outline: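 HEK293T-ATAD5 luc reporter; 2000 cells/well; 5hr settle; cpd 11-pt qHTS; 16hr 37C 5% CO2 dark; viability by CellTiter-Fluor (AFC fluorescence); then luciferase luminescence, 30min RT.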

[14] = G06 Cancer Cell Toxicity qHTS against the NCATS CANVASS Library (AID 1347368); also: potency is read from the fitted curve at half-maximal effect; nearly all actives have a fitted effect of over 60% in size
Outline: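 Dog G06 glioma line, 500 cells/well; cpds pin-transferred, 11-pt; 72 hr, 37C/5% CO2; CellTiterGlo luminescence (ATP) endpoint.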

[15] = MCF7 Cancer Cell Toxicity qHTS against the NCATS CANVASS Library (AID 1347369); also: potency is read from the fitted curve at half-maximal effect
Outline: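 Cells seeded at 500/well, then compound pinned. Plates incubated 72 hr at 37C, 5% CO2. CellTiterGlo added; luminescence read.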

[16] = J3T Cancer Cell Toxicity qHTS against the NCATS CANVASS Library (AID 1347371); also: potency is read from the fitted curve at half-maximal effect
Outline: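 Cells plated at 500 per well, compounds pin-transferred, plates incubated 72 hr at 37C, then CellTiterGlo added and luminescence read to measure ATP content.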

[17] = target: Nuclear receptor subfamily 1 group I member 3 (Homo sapiens) (UniProt Q14994); assay: qHTS for Constitutive Androstane Receptor (CAR) Antagonist screened against the NCATS CANVASS Library (AID 1347372); also: potency is read from the fitted curve at half-maximal effect
Sequence of UniProt Q14994 (Q14994 whole entry, looked up): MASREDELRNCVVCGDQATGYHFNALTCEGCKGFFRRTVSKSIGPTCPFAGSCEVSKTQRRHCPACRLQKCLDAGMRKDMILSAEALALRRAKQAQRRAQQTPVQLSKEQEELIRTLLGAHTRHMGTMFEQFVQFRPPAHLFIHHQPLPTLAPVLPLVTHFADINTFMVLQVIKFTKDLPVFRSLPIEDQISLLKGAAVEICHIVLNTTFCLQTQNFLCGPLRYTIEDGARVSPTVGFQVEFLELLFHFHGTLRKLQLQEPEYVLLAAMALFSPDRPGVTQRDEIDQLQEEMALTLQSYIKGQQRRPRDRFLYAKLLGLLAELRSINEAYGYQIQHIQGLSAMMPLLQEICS
Outline: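 HepG2-CYP2B6-hCAR double-stable cells plated, 4hr attach; cpd pin-transferred; CITCO 50 nM final; 24hr 37C/5% CO2; CellTiter-Fluor 1hr (fluorescence), then ONE-Glo luminescence.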

[18] = qHTS for Hypoxia signaling pathway (HIF-1) antagonists against the NCATS CANVASS Library (AID 1347374); also: potency is read from the fitted curve at half-maximal effect; nearly all actives have a fitted effect of over 60% in size
Outline: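 HRE-bla ME-180 cells in medium with 0.5% dialyzed FBS received compounds (11-point series) plus CoCl2 (60 uM addition stock) for 17 hrs at 37C. Beta-lactamase activity read with CCF4 (405 nm ex, 460/530 nm em); CellTiter-Glo viability measured in same wells.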

[19] = qHTS for Inflammasome Signaling Inhibitors: IL-1-beta AlphaLISA screen against the NCATS CANVASS Library (AID 1347379)
Outline: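 THP-1 cells pretreated 1 hr with compound (up to 57.5 uM final), then stimulated with LPS (250 ng/mL final) and ATP (1.25 mM final). Secreted IL-1B measured by AlphaLISA after 16 hr; glyburide as positive control.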

[20] = qHTS for Activators of p53 Stress Response Pathway screened against the NCATS CANVASS Library (AID 1347388); also: potency is read from the fitted curve at half-maximal effect
Outline: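 Beta-lactamase reporter driven by p53 response elements in HCT-116 cells, read as the 460 nm/530 nm emission ratio after CCF4 loading, following 16 h of exposure to an 11-point series. Cell viability was measured in the same wells by CellTiter-Glo luminescence.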

[21] = Secretion counterscreen for inhibitors of the SERCaMP assay screened against the NCATS CANVASS Library (AID 1347390)
Outline: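 SH-SY5Y-GLuc STOP cells; 4 h attach; cpds 0.001 - 77 uM (qHTS, 11 pts), 20 h 37C/5% CO2; coelenterazine in glow buffer; luminescence, 5 s exposure.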

[22] = Vero-766 cells viability qHTS against the NCATS CANVASS Library: Counterscreen for Zika virus inhibition assay (AID 1347394)
Outline: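 Vero 766, no virus; 1000 cells/well; o/n attach; cpd 11-pt; 72 h, 37C, 5% CO2; CTG luminescence; cell-free media wells = 100% inhibition.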

[23] = qHTS for inhibitors of Rabies Virus screened against the NCATS CANVASS Library (AID 1347402; calls by dose curve; also: potency is read from the fitted curve at half-maximal effect)

Measured: Potency
Tags tell the direction and shape of the fitted curve.

CCCC[C@@H]1CC[C@H]2CCCC(CCCO)N12 (some centres not stated)
inconclusive: [1] 49.3 µM [inhibitor, partial curve, poor fit] | [3] 5.94 µM [cytotoxic, partial curve, poor fit] | [5] 19.3 µM [inhibitor, partial curve]
inactive: [2] | [4]

C[C@]12CC(O)C3[C@@H](CCC4C[C@@H](O)CC[C@@]43CO)[C@@]1(O)CC[C@@H]2C1=CC(=O)OC1 (some centres not stated)
inconclusive: [6] 23.6 µM [cytotoxic, single point] | [2] 18.8 µM [cytotoxic, single point] | [7] 14.9 µM [cytotoxic, partial curve] | [8] 13.3 µM [cytotoxic, partial curve] | [9] 8.41 µM [cytotoxic, full curve] | [10] 18.8 µM [cytotoxic, partial curve] | [11] 23.6 µM [cytotoxic, single point] | [15] 20.8 µM [cytotoxic, partial curve] | [19] 43.2 µM [inhibitor, single point] | [20] 11.7 µM [activator, single point] | [21] 60.9 µM [inhibitor, single point] | [22] 29.5 µM [cytotoxic, single point] | [23] 20.8 µM [inhibitor, partial curve]
inactive: [13] | [5]
active: [1] 44 µM | [3] 13.3 µM | [12] 18.7 µM | [14] 13.2 µM | [16] 14.8 µM | [17] 10.5 µM | [18] 9.41 µM
